Test results taken from publication PMC12262889.
No constants are given. Whether binding was seen depends on the method and setting. In cells and extracts the contact can be indirect. Some entries that bind do so weakly or less than the wild type. Tags and fused reporters may be left off the sequences shown.

By UniProt entry, the sequences of proteins in these tests, tags left out.
UniProt P14126: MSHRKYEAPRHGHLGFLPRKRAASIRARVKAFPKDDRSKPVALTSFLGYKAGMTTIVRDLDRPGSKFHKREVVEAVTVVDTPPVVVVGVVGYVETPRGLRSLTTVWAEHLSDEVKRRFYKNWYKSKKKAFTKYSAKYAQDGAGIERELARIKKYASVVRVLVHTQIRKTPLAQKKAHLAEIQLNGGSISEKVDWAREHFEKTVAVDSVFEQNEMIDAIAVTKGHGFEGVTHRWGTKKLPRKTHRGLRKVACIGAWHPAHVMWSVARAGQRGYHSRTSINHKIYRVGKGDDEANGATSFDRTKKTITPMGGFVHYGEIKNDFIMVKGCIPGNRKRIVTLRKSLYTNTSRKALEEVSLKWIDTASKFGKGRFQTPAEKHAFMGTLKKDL

Tests used:
[1] = target: ribosomal protein Rpl3 (S. cerevisiae) (UniProt P14126); test: co-sedimentation; 5-45% sucrose continuous-density gradients of log phase Clu1-GFP lysates without cross-linking, with CHX (polysome-preserving) or CHX followed by RNase A (polysome-disrupting); immunoblot of fractions for Clu1-GFP and Rpl3
[2] = target: ribosomal protein Rpl3 (S. cerevisiae) (UniProt P14126); test: co-sedimentation; 5-45% sucrose gradients after in vivo cross-linking with 1% formaldehyde (20 min, room temperature); log phase, PD phase, galactose + CCCP, galactose + CCCP + glucose; lysates with or without RNase A; immunoblot of fractions for Clu1-GFP and Rpl3

binding [1]: binds
binding [2]: binds
B1: Clu1-GFP (protein, UniProt Q03690 1-1277)
chain: MSEKKEEVKNATVKVTVKLPKEDNHSHNTKHLKKTQSSKNNDISFEIGKESKIQTVLDVLAMIPSSKYLTNVGLKTIEGDSQLSDEMSIKEIVGEKSELKLQLILKPYSAREALKHVITVRDFIGFAQETSDGLSEFAISTGSSFSSLPLGPIKERSKQEEKDEKSDPEEKKNTFKDVTDEEKLKFNEMVHEVFSSFKNSSINKLLTSESNIITPCVRSLSFAPYNPVPPFYRSKGHLFYLQIVTLEGESFYITAIPSGFYVNKSNSTKFDPSPKENTDENAHSSLIYYSLFDLIASRSKKFISHVQAFEKKLSALDSTSYVRPSNTFLHKPWFVSSLPPNNPDYLRLQTAALDTTPERNFNDEFQAIKDLTTSTLQDRIEMERLFSKVVHEFSVTAASGAMSIFYSDFVAMNPESPTRDQIFLKDNIFYSYVSDVSGNYEGKGGDEAAIAASNQDLKTINILNRLHMHEVRYLLTTVVEFAGRRILAQTPVPGLLATMGNKIVKDANTGEEVTEDFVNDINVKYGLDEGLGKIVYDADFDSVLEKKFVKAFHLKKHKVNGTELAFSSQSKGIVGFDKRRYILDLANTYPLDINFARQNFDNIEETGNRYPHRQTLLRPELVEKWWNNKVEKEGVEFEKAYEENLFSYNPDAYQVEGIEDANVDEMSNYLQKEVIPSVIQDYLSGNLSTPYNGEHLADTLHKNGINMRYLGKIIELSQKELDSQIVHYEQNLKAVEQDNKEYEDWEKSYLQKIENMIKERQAKINKLVQEGKEVPKELTEDLKLNDEEIKKPTDGKPVVVAYDELVPLIKISELEIVSRSLKHVLKDLSKDVPVFLVPSLVAYVFNMLVGINYNADPKPEPVDEFYPVNKCSFAKLTRSELLEAVSKQAFLRFRHQLPSNWIEAYMENPFTLIRSVSYKFGIQLLNKEYFFTREQLESYKQSLDKKIRNKFVEPPTTFSLSDLTIIPRVKFSEYTSSVSEEFWAQGASMINEDKQSALTLLAQSITVLEDVNNILHPAVAEKYLSLSAIYNKLALYPEAIAFCRKACTIYERVSGIDSFEMMRALTNLAILEFSNESPYNATVVYNRLAEILKVYELPKIHHPAPTSIFNHLEQLALGVQDTKLAIEVLGQLSSYVVELEGKDSLAYGYTESRLGNLFAALKDFHRALEHITVTQGIFTKQLGMNHTHSAQSRQWVNGLSSLIMDLKQKKQLAQDQMSTTGSNSAGHKKTNHRQKKDDVKPELANKSVDELLTFIEGDSSNSKSKNKTNNKKKHGKK
